In the supplement of paper PMC10126150:
Sequences with one replicate were seen in a single cluster, so their values are uncertain.

Test system: ATP
Test: switch fluorescence ratio, 500 uM ATP over buffer (Cy3 cluster intensity, sum of 5 cycles each) (fold (ratio)); higher = stronger signal-on switching upon ATP binding; sequences stand for … in TCGTCGGCAGCGTCAGATGTGTATAAGAGACAGTTTTTTTTTTTTTTTTTTTTTTTTT…TC
Conditions: aptamer strand: ATP DNA aptamer (quencher-CACCTGGGGGAGTATTGCGGAGGAAGG + anchor), 100 nM annealed; ATP concentration: 500 uM; one replicate
Method in brief: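 After annealing to 100 nM quencher-labelled ATP aptamer, Cy3-labelled switching-strand clusters on a modified Illumina MiSeq flow-cell were imaged in selection buffer. A second image followed after 15 min with 500 uM ATP at 22 °C, and five such buffer/ATP cycles were done, each separated by NaOH stripping and re-annealing. The fluorescence ratio, averaged per switch-domain sequence, is summed target-cycle over summed buffer-cycle Cy3 intensity per cluster, with clusters outside 100-1000 RFU excluded.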
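Further: ATP exposure 15 min at 22 °C before imaging.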

Sequence	switch fluorescence ratio
ACGAGGTCTA	1.01
TATCGAACAC	1.06
TCAGGATGCT	0.96
GAGAGGGTTC	1.05
CGACATTTGG	1
CGAGATGG	1
CCACCGGGAA	1.18
TCGCCCGGA	1
GCAGAGTAAA	1.01
TTATGGTAGA	1.01
TATGAAAGGT	1.07
AGATCGGTCG	1.03
AGCGGGTGGG	1.03
TGTTCTATGC	1.01
ATTCCGAATT	1.1
TGACCTGGAC	1.17
AGAGATTAG	1.01
TCAGGCTCTT	1.08
GATGCACGGT	1.01
CGCTCTAGCC	1.08
GCCTGTGATC	1.02
TCGGTGAATA	0.968
AATTTAGATA	1.01
CAGGTGGCTC	1.09
GACGGTGAAC	1.15
TATGGGTATT	0.988

Sequence	switch fluorescence ratio
ACTAGATCCT	1.11
ATCAA	1.01
GTCTGAGAAC	0.97
GTTGTAATCG	1.01
GTAAACAGGA	1.11
GTTTTAGGTA	0.963
TCTTTTGATT	1.03
CCAATGGCGT	1.01
AGACAAATAA	1.01
CATGAGGAGG	0.997
AGCCCACATG	1.05
TTTTGGCCTC	0.993
TTTAAGTATC	0.981
AGATGAAAAT	0.981
TAGACCATA	1.08
TATTGAGTCC	0.995
CCACGCGGAA	1.14
TATTGTAACG	1.01
ACCTTTATTA	0.984
ATTCGAGACA	0.999
CGGTTCGGG	1.02
GAGAAATTCA	1.02
TCCGAAAAGT	0.99
GCACGGCTAG	1.02
CACCAATTGC	1.28
AGCACAGCAT	1.01

Sequence	switch fluorescence ratio
AGCTGCTTTT	0.981
GATGTTGGGT	1.01
AGGGGCAATG	1.17
ACTAGATAGC	0.993
TCACTCTGCG	1.15
GTGATGAGCC	0.929
TATAAAAAA	1.02
CGTAAAATA	1.01
CGCGACATGG	0.984
GGGTCCCTTT	0.988
CCAAGGATCC	1
TCAATCTTAA	1.07
GGACTGGG	0.959
AGACAAAGTG	1.01
TAGCGCGTTA	1.02
ATCGTTACCC	1.04
CGACCAAGGT	1.15
ATTTTGCAGT	1.01
CGCTCTGGCC	1.02
GCGTGTGTTG	1.04
AAATTCTATC	0.95
GAGTTAACTG	0.806
AGTGGAGGTA	0.964
GTGCCTGTTT	1
CTAAGGATTT	1.03
AGAGTCGGTA	1.01

Sequence	switch fluorescence ratio
CTCTAAAATG	1.04
TACAGTCCAT	1
GTTTACCAGG	1.18
TTTCCCCGGG	1.08
TACTGCTGGG	1.01
CATCGCGCG	1.03
CATTGGTGTT	1
GCACCTTAAC	1.24
CTAGGATGTT	0.979
ATCGTCCTTG	0.991
GAGTAAACGG	1.01
TGATTTGCTT	0.997
AAATGTGAT	1.03
TCAGTCTTTG	0.996
ATGCAGCTCG	1.02
TACCATTTTT	0.984
CGCATTATTT	1.25
GCCGGTGGAA	0.997
CCAGGTGTAT	2.64
TGGACTCGCA	1.15
GGCCACATTG	0.964
GGGGCTCCAT	0.942
AACAGCTC	1.01
TCTTGCGGCT	1.02
GTGTTAGAGC	0.98
TCCAGCGCA	2.26

Sequence	switch fluorescence ratio
ATGCTTGGTG	1.04
GGTCTCATCC	1.03
ACGTGGGTGT	0.973
CGAGCTTCGA	0.986
TGCTGGGCAG	0.979
TTTGATGCTG	1.02
GCAAATGAAT	0.96
GGACCGTCGT	1.03
ATTACTCTTG	1.05
TAAGTGGTC	1.04
GTACCCGGCG	1.02
TTCGTGGTAT	1
TATTCATGC	0.999
GTTGACATGC	1.03
GGCTGGGTTC	0.97
CTGGGTGGCT	1.02
AGCGTCCTTG	0.997
AGTTGGATTC	1
TGGGCCGTCG	1.11
AAATGGACGG	1.03
GTCAACATTT	0.964
AGTTGAAGAT	0.971
GCGCCTGGGG	1.02
ATCGGCCGGA	1.02
GCCTACTGTG	1.04
AGATATAGTT	0.975

Sequence	switch fluorescence ratio
GACGTAGCGT	1.32
TTAATACCTC	1.05
TAAAAAACAA	0.991
TTTAAAGTCC	1.01
ACGGGGCGCG	0.964
GTCCAACGAT	0.997
TGGTGCAAAA	0.991
CGATGGGCAC	1.05
TTTCAGACGC	1.21
TTGACATCTT	0.998
CAATCCTCGT	0.973
TGCGCTGCGG	0.974
GCAGCGTGGG	1.06
ACGGACCGGA	1.08
TCCACCCGCA	6.69
GACGTGGCCA	1.03
TGATTAGCA	1.01
GCAGGCGTGC	1.01
GACACTCCAC	1.46
TAAGGACAG	0.994
CAAGTGTTA	0.956
CTTGCTTCCG	1.35
GTAGTTGGCC	0.988
AATATCTGGT	0.934
TTCGTGATGT	0.975
TTCCGGCAAT	1.59

Sequence	switch fluorescence ratio
TCGGATCAAG	0.985
GGTCCTAGCG	0.958
ATCCCTACGG	1.01
TAACTTGTCT	1.02
ATGCAGCCGC	1.07
GGACAGGGAA	0.985
AAATGCAAG	0.977
TTGCAATGTG	1.12
GAGGTCG	1.01
TAGGTGGTCA	0.985
CAAGGAAGAA	1.04
TACATGAAAA	0.987
AACGGGATTC	1.01
CTTGCCAGCT	0.987
GGCCTAATTG	1.02
GGCTGGAGGA	1.02
AAGGTCTCGC	1.02
CTCGAAAATA	1.05
AATCGGGTAA	1.01
ACTGGGCCAA	1
TAGTACTATT	0.977
AAGCTCTCGT	0.965
CGTAGGGCTT	0.954
GGTAAAAACA	0.998
TTTAGAATTA	1.02
AGGGAACTGC	1.03

Sequence	switch fluorescence ratio
AGAATGGCA	1.07
GTGAAACTAT	0.975
ACAAAAATG	1.06
GTTCTATTTA	0.982
GGATAGATAG	0.983
TGCCAAAAG	0.976
GACGTGTCAT	0.972
AGCATTGGGA	0.978
ATTCAGGGGC	1.03
GTAACTGTGC	0.935
GTTCTATACT	1.05
TAAACCCGCT	1.03
TAGCGGTGGA	1.01
GCACTTTGAA	1.01
CGTTTTGTGG	1.01
GTGGAGGAA	1.02
AGGTATGGCA	1.07
TAGGAGGCT	1
TAAGCGAGTA	0.973
